Results from the supplement of paper PMC11417369.
The list shows a part of the results.

These sequences were tested on PfAP2-HC AP2 domain (GST-tagged) (assay: gcPBM binding intensity (ln(normalized median fluorescence intensity)); higher = stronger DNA binding).
How it was run: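 An Agilent 4 × 180k array carrying primer-extended double-stranded 36-bp intergenic genomic probes and negative controls received GST-tagged P. falciparum DNA-binding domains expressed in E. coli, about 25 μg on average, for 1 h. The binding buffer contained 1× PBS, 1% milk, 0.2 mg/ml BSA, 0.5% salmon testes DNA and 0.03% Triton X-100. Binding intensity is the top Masliner-normalised natural-log median intensity across replicate spots of either probe orientation, read after Alexa488 anti-GST antibody staining and a 488 nm scan.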

Row | Sequence | gcPBM binding intensity (ln)
1 | TCTTCCATTTTTATTACACACATAAATATGAAATCG [CACACA_site3471] | 9.74
2 | CCTTTAAGCAAAAACACACACACATATATATATATA [CACACA_site348] | 10
3 | GGAATATTATTTCAATGTACATTTTGAGATTAGAAT [XGTACX_site8187] | 9.5
4 | ATTATTATTTTACGTAGTACATATAATAAATATTTA [XGTACX_site8934] | 9.5
5 | TTATTTCTAATTCGTTGTACAATATATAATATATAT [XGTACX_site5861] | 9.68
6 | TATCCATATTTGTTCACACACACACGGATTTATATA [CACACA_site7649] | 10.1
7 | TTGATAGACACATGCACACATGCAATACTTTATTCA [CACACA_site3000] | 9.99
8 | TAGGTGTTAAAAAATACACACACAAAAAAAAAAAAA [CACACA_site7927] | 9.96
9 | ATTAATATGAATAAAACACACATATATAATTTGTAA [CACACA_site1929] | 9.85
10 | ATTTTTTTTTTTTTTTTTTATATGCTCTCCATGAGA [CACACA_negctrl_site1225] | 9.18
11 | AAAAAAAAAAAGAAATGTACATGAATATTTTAAATG [XGTACX_site4069] | 9.68
12 | TGCAGTCTGGAGAAGAGTACACAGTATCTGGTAACA [XGTACX_site2037] | 9.49
13 | TATATATTCATATGTTGTACATAAATACAAATAAGA [XGTACX_site5602] | 9.78
14 | AACAGAATAATACTAAATGAACGATTTCTCTTTATG [GTGCAC_negctrl_site376] | 9.6
15 | AAAGGTAAATGTAAATAAATAAATAATAAATATATA [GTGCAC_negctrl_site681] | 9.77
16 | TCTTTTTACACCTCTTACATAAAACAAAATAAGGGG [XGTACX_negctrl_site12] | 9.68
17 | TATACATGTTATGTACATCTAATCACACGTGCAATA [CACACA_negctrl_site1267] | 9.78
18 | TTGTAAATTTACATTTGTACATAAATATATTAATAT [XGTACX_site3969] | 9.59
19 | ATATATATAAAACACACACACACATGGTTTAAAACT [CACACA_site4219] | 10.4
20 | TGTATGTTTGGGTGCACACATAAATATTATATATAG [CACACA_site3397] | 9.82
21 | CATGCTACATCTTATTGTACTTATCTAATGTTAGTA [XGTACX_site1863] | 9.66
22 | AAAAAGGAGAAACACACACACACACCCATATATATA [CACACA_site905] | 10.7
23 | AGGCAATATTATATATATATATATATATATATATAT [CACACA_negctrl_site826] | 9.75

Row | Sequence | gcPBM binding intensity (ln)
24 | GTATGATGCATAAGAGTGCATAAGGATATTTCTTCA | 9.66
25 | AATTTAAAAAATAACAGTACATAAAATATATACATA [XGTACX_site7917] | 9.61
26 | TATTGTTATTAAAAATGTACATATAAATTTCTTATT [XGTACX_site1409] | 9.47
27 | AAAAATAAAAGGTGTGCACACAAAAATATATATATA [CACACA_site8507] | 10.5
28 | TGGCATTAAAATTTAGTGCATATATCTTAGCATGGG | 9.47
29 | TGTGTATATTATATGTGTACATATCAATGTTTATAT [XGTACX_site1885] | 9.86
30 | TAATATTAAATAAATAAAATATATAATATATATATA [XGTACX_negctrl_site49] | 9.43
31 | TAATATATAACGTGCACACACACATCTACGTATGAA [CACACA_site5080] | 10.3
32 | CAATGTTAACATATTACACACATATGTATTTATAAT [CACACA_site5512] | 9.86
33 | GCATATATTATATATTTATTTATTTTTTTTTTTTAA [GTGCAC_negctrl_site193] | 9.44
34 | AATAAAGGAAATAAATAATTTATTTTGTAAAATATG [CACACA_negctrl_site97] | 9.53
35 | ATATATATGAATACATGTACGTATTTGTCTATGTAT [XGTACX_site8306] | 9.81
36 | AAAATATTTATATTTACACACACATAATACATATAT [CACACA_site32] | 10.5
37 | GTGTACAGTTTTTGCACACATATAAATAAAAAAAAG [CACACA_site3599] | 9.9
38 | TAAATTACATGAAATTGTACATGAATATTAAATATA [XGTACX_site3909] | 9.34
39 | ATATATACAAAGGATTAACACACATATTATTATATA [CACACA_site8563] | 9.77
40 | TTCGTTATAATTGAATTTACAATATGCTTTATAATG [XGTACX_negctrl_site238] | 9.6
41 | ATGTTACTCAGACACACACACATAAAAAAACAAAAA [CACACA_site3249] | 10.4
42 | TGTGTTAATATATGAAGTACACAATACACACTAATT [XGTACX_site5469] | 9.84
43 | AAATAAAATTATAATACATGCATACATACATATATA [TGCATGCA_site69] | 9.67
44 | TCATATGTTAAATGATGTACATTTAATATAAATAAA [XGTACX_site900] | 9.3
45 | AAAAAAAACATCCTCACACATATATATATATATATA [CACACA_site5166] | 9.65
